# In all, about 39,000 compounds went through this assay and about 220 (0.56%) showed activity. This is one part of the list.
# Tested on: Escherichia coli K-12 BW25113
# Experiment: relative growth (OD600 normalised to plate interquartile mean) (fraction); higher = less growth inhibition, active = 0.2 or less
# Conditions: 50 µM; LB; incubation time: overnight (16-24 h)
# 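Note: static incubation at 37 °C against the wild-type strain, values averaged over two biological replicates.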
row,Structure (SMILES),relative growth
1,CC1(C)c2nc(-c3ccc(F)cc3)c(Nc3ccc(F)cc3)n2CCN1C(=O)CN,inactive: 0.999
2,C[C@H]1CN([C@@H](C)CO)C(=O)c2cccc(NC(=O)Nc3ccc(F)cc3)c2O[C@H]1CN(C)Cc1ccc(-c2ccccc2)cc1,inactive: 0.896
3,COc1ccc(S(=O)(=O)N(C)C[C@H]2Oc3c(NC(=O)c4cc(C)nn4C)cccc3C(=O)N([C@@H](C)CO)C[C@@H]2C)cc1,inactive: 0.978
4,COc1ccc(NC(=O)N(C)C[C@H]2Oc3ccc(NS(=O)(=O)c4c(C)noc4C)cc3CC(=O)N([C@@H](C)CO)C[C@@H]2C)cc1,inactive: 1.03
5,Cc1ccc(S(=O)(=O)N(C)C[C@@H]2Oc3ccc(NS(=O)(=O)c4c(C)noc4C)cc3C(=O)N([C@H](C)CO)C[C@@H]2C)cc1,inactive: 1.01
6,C[C@@H]1CCCCO[C@@H](CN(C)C(=O)Nc2ccccc2)[C@H](C)CN([C@@H](C)CO)C(=O)c2cc(NS(=O)(=O)c3ccc(Cl)cc3)ccc2O1,inactive: 1
7,Cc1noc(C)c1NC(=O)N(C)C[C@H]1Oc2c(NS(=O)(=O)c3cn(C)cn3)cccc2C(=O)N([C@H](C)CO)C[C@@H]1C,inactive: 0.997
8,C[C@@H]1CN([C@@H](C)CO)C(=O)Cc2cc(NS(=O)(=O)c3ccccc3)ccc2O[C@@H]1CN(C)S(C)(=O)=O,inactive: 0.99
9,C[C@@H]1CN([C@@H](C)CO)C(=O)Cc2cc(NS(=O)(=O)c3ccc(F)cc3)ccc2O[C@H]1CN(C)Cc1ccc(-c2ccccc2)cc1,inactive: 0.949
10,C[C@@H]1CCCCO[C@H](CN(C)S(=O)(=O)c2ccc(Cl)cc2)[C@H](C)CN([C@@H](C)CO)C(=O)c2cc(NC(=O)Nc3ccc(C(F)(F)F)cc3)ccc2O1,inactive: 1.04
11,O=C(C1=C[C@H](c2ccc(C(F)(F)F)cc2)C[C@H](OCc2ccc(CO)cc2)O1)N1CCN(Cc2ccc3c(c2)OCO3)CC1,inactive: 0.934
12,O=C(C[C@@H]1CC[C@@H]2[C@H](COC[C@@H](O)CN2S(=O)(=O)c2ccc(F)cc2)O1)NCc1ccc(Cl)c(Cl)c1,inactive: 0.997
13,Cc1cc(C(=O)Nc2cccc3c2O[C@H](CN(C)Cc2ccccc2)[C@@H](C)CN([C@@H](C)CO)C3=O)n(C)n1,inactive: 1.01
14,C[C@@H]1CN([C@H](C)CO)C(=O)c2cc(NS(=O)(=O)c3cccs3)ccc2O[C@@H]1CN(C)C(=O)Nc1cccc2ccccc12,inactive: 1.01
15,COc1ccccc1-c1cnc2c(c1)C(=O)N([C@H](C)CO)C[C@@H](C)[C@@H](CN(C)C(=O)c1cccnc1)O2,inactive: 1.01
16,C[C@H](CO)N1C[C@H](C)[C@@H](CN(C)Cc2ccccc2)Oc2c(NC(=O)c3cnccn3)cccc2C1=O,inactive: 1.03
17,C[C@H]1CN([C@@H](C)CO)C(=O)c2cc(NS(=O)(=O)c3cn(C)cn3)ccc2O[C@H]1CN(C)CC1CCCCC1,inactive: 1.01
18,C[C@@H]1CN([C@H](C)CO)C(=O)c2cc(/C=C/c3ccccc3)cnc2O[C@H]1CN(C)S(=O)(=O)c1cn(C)cn1,inactive: 1.05
19,COc1ccc(CN(C)C[C@@H]2Oc3ccc(NC(=O)CCCCCC(=O)Nc4ccccc4N)cc3CC(=O)N([C@@H](C)CO)C[C@@H]2C)cc1,inactive: 0.941
20,Cc1ccc(S(=O)(=O)Nc2ccc3c(c2)C(=O)N([C@H](C)CO)C[C@H](C)[C@@H](CN(C)S(=O)(=O)c2ccc(F)cc2)OCCCC[C@@H](C)O3)cc1,inactive: 1.02
21,O=C(N/N=C/[C@H](O)[C@@H](O)[C@@H](O)[C@H](O)CO)c1ccccn1,inactive: 1

row,Structure (SMILES),relative growth
1,C[C@@H]1CN([C@@H](C)CO)C(=O)CCCn2cc(nn2)CO[C@@H]1CN(C)S(=O)(=O)c1cccc(C#N)c1,inactive: 0.986
2,CCCC(=O)NCc1nccc(N(C)C)n1,inactive: 0.994
3,Cc1noc(C)c1S(=O)(=O)N(C)C[C@H]1Oc2ccc(NS(=O)(=O)c3ccc(F)cc3)cc2C(=O)N([C@@H](C)CO)C[C@H]1C,inactive: 0.996
4,C[C@@H]1CCCCO[C@H](CN(C)S(=O)(=O)c2ccc(Cl)cc2)[C@H](C)CN([C@@H](C)CO)C(=O)c2cc(NC(=O)CCC(F)(F)F)ccc2O1,inactive: 1.03
5,C[C@H]1CN([C@@H](C)CO)C(=O)c2c(c3ccccc3n2C)-c2ccccc2CO[C@@H]1CN(C)Cc1ccc2c(c1)OCCN2C,inactive: 0.992
6,C1CC(N2CCNCC2)C1,inactive: 1.01
7,COc1ccc2c3c(n(c2c1)C)[C@H](CO)N(C[C@]13CN(C1)C(=O)C1CC1)C(=O)CN1CCOCC1,inactive: 1.01
8,C[C@@H]1CN([C@H](C)CO)S(=O)(=O)c2ccc(C#Cc3ccccc3)cc2O[C@H]1CN(C)S(C)(=O)=O,inactive: 1.04
9,CN(C)CC(=O)N1CC(=O)N2[C@H](CO)[C@H](c3ccc(C#Cc4cccnc4)cc3)[C@H]2C1,inactive: 0.993
10,CO[C@H]1CN(C)C(=O)c2cc(NC(=O)Nc3cccc(F)c3)ccc2OC[C@H](C)N(C(=O)Nc2c(C)noc2C)C[C@@H]1C,inactive: 1.03
11,Cc1[nH]c2ccccc2c1C(=O)CSc1ccc(Cl)cc1,inactive: 1.02
12,Cc1ccc(/C=N/Nc2cnnc(=O)[nH]2)o1,inactive: 0.975
13,C[C@H](CO)N1C[C@H](C)[C@@H](CN(C)Cc2ccc3c(c2)OCCN3C)OCc2ccccc2-c2c(n(C)c3ccccc23)C1=O,inactive: 0.861
14,Cc1noc(C)c1NC(=O)Nc1ccc2c(c1)C(=O)N([C@@H](C)CO)C[C@H](C)[C@H](CN(C)C(=O)Nc1ccc(C(F)(F)F)cc1)OCCCC[C@H](C)O2,inactive: 1
15,C[C@@H]1CN([C@@H](C)CO)C(=O)CCCn2nncc2CO[C@H]1CN(C)S(=O)(=O)c1ccc(Oc2ccccc2)nc1,inactive: 1.01
16,COc1ccccc1NC(=O)N(C)C[C@@H]1OCc2ccccc2-c2c(n(C)c3ccccc23)C(=O)N([C@H](C)CO)C[C@H]1C,inactive: 0.993
17,CNC[C@H]1Oc2cc(C#CCN(C)C)ccc2S(=O)(=O)N([C@H](C)CO)C[C@H]1C,inactive: 1
18,CN(C)S(=O)(=O)c1ccc(CN)cc1,inactive: 1.02
19,COc1cccc(S(=O)(=O)N(C)C[C@H]2Oc3cc(C4=CCCC4)ccc3S(=O)(=O)N([C@@H](C)CO)C[C@H]2C)c1,inactive: 1.04
20,N=C(N)Nc1nc(CSCC/C(N)=N\S(N)(=O)=O)cs1,inactive: 0.911
21,O=C(C[C@H]1CC[C@@H]2[C@H](COC[C@H](O)CN2C(=O)c2cnccn2)O1)N1CCN(c2ccccc2)CC1,inactive: 1

row,Structure (SMILES),relative growth
1,NCC[C@H]1CC[C@H](NC(=O)C2CC2)[C@@H](CO)O1,inactive: 0.992
2,O=C(C[C@@H]1CC[C@H]2[C@@H](COC[C@@H](O)CN2S(=O)(=O)c2ccc(F)cc2)O1)N[C@H]1CCN(Cc2ccccc2)C1,inactive: 0.98
3,CCOc1ccc(N2C(=O)/C(=C/C=C/c3ccccc3OC)S(=O)(=O)[C@@H]2c2cccc([N+](=O)[O-])c2)cc1,inactive: 1.03
4,C[C@H](CO)N1C[C@H](C)[C@@H](CN(C)Cc2ccc(C(F)(F)F)cc2)Oc2ccc(NC(=O)C3CCCCC3)cc2C1=O,inactive: 0.994
5,CO[C@@H]1CN(C)C(=O)c2ccc(NS(C)(=O)=O)cc2OC[C@@H](C)N(S(C)(=O)=O)C[C@H]1C,inactive: 1.03
6,C=CCOC(=O)[C@H]1[C@@H]2C(=O)O[C@@H](c3ccccc3)[C@@H](c3ccccc3)N2[C@@H](c2ccc(OCCOC(=O)[C@H]3C[C@H]4C(=O)N[C@@H](CCCCNC(C)=O)C(=O)N4[C@H]3c3ccc(O)cc3)cc2)[C@]12C(=O)Nc1ccc(I)cc12,inactive: 1.03
7,C[C@@H]1CN([C@@H](C)CO)C(=O)c2cccc(NC(=O)c3nc4ccccc4s3)c2O[C@@H]1CN(C)C(=O)Nc1ccc(F)cc1,inactive: 0.982
8,CN1CCN(C(=O)C[C@@H]2CC[C@H]3[C@@H](COC[C@H](O)CN3C(=O)C3CCOCC3)O2)CC1,inactive: 1.02
9,COCC#Cc1ccc2c(c1)O[C@H](CN(C)C(=O)c1ccccc1)[C@@H](C)CN([C@H](C)CO)S2(=O)=O,inactive: 0.998
10,COc1ccccc1OC[C@@H](O)CO,inactive: 0.867
11,CC(C)C[N+]1(C)Cc2ccccc2C1,inactive: 1.01
12,CCC(=O)OC1(C(=O)SCF)C(C)CC2C3CC(F)C4=CC(=O)C=CC4(C)C3(F)C(O)CC21C (stereo not drawn),inactive: 0.971
13,C[C@@H]1CN([C@@H](C)CO)C(=O)c2cc(NS(=O)(=O)c3cccs3)ccc2O[C@@H](C)CCCCO[C@@H]1CN(C)C(=O)Nc1ccc(F)cc1,inactive: 1.02
14,C[C@H]1CCCCO[C@H](CN(C)C(=O)Nc2ccccc2)[C@@H](C)CN([C@@H](C)CO)C(=O)c2cc(NC(=O)Nc3ccc(C(F)(F)F)cc3)ccc2O1,inactive: 1.06
15,COc1cc(OC)nc(N=CNO)n1,inactive: 1.02
16,CC(C)NC(=O)N(C)C[C@H]1OCc2cn(nn2)CCCC(=O)N([C@@H](C)CO)C[C@H]1C,inactive: 0.977
17,Cc1ccc(S(=O)(=O)N2C[C@H](O)COC[C@@H]3O[C@@H](CC(=O)N[C@H]4CCN(Cc5ccccc5)C4)CC[C@H]32)cc1,inactive: 0.97
18,OCc1ccc(O)cc1,inactive: 1
19,C/C=C/c1cccc(-c2nc(C(=O)NCc3cccc(OC)c3)cc3c2[C@H](CCO)N([S@@](=O)C(C)(C)C)C3)c1,inactive: 1.01
20,O=P(O)(O)CN(CCN(CP(=O)(O)O)CP(=O)(O)O)CP(=O)(O)O,inactive: 0.926
21,C[C@H]1CN([C@@H](C)CO)C(=O)c2cc(NC(=O)Nc3ccc(F)cc3)ccc2O[C@H]1CN(C)C(=O)Nc1cccc2ccccc12,inactive: 0.957
